From paper PMC7819943, “Rice protein-binding microarrays: a tool to detect cis-acting elements near promoter regions in rice”
The list shows a part of the results.

target: T1, OsWOX13 (Oryza sativa, UniProt Q5QMM3 1-267); assay: protein-binding microarray (RPBM); PBS, 2% BSA, 51.3 ng/ul salmon testes DNA, 50 uM zinc acetate, 200 nM TF, 25 C, 1 h; high values mean tight binding; conditions: protein: recombinant; tags: N-terminal polyhistidine and DsRed monomer fusion (pET32a); label: CyDye5-dUTP incorporated in the synthesized complementary strand; 3' TTTTT single-stranded linker to array surface; dsDNA, one strand shown
T1 sequence: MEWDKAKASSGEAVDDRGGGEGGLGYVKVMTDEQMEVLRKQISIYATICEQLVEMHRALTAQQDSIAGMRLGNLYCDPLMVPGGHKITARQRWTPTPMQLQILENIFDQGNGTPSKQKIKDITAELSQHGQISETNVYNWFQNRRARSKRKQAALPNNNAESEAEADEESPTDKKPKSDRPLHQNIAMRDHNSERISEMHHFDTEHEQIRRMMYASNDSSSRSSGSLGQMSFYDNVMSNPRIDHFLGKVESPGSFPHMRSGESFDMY
Procedure, shortened: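 For the binding signal, per-feature fluorescence intensity was read in arbitrary units on an Axon 4000B scanner. Before scanning, a 2% BSA-blocked custom Agilent array made double-stranded with Cy5-dUTP was washed after 1 h at 25 °C with 200 nM protein and 50 µM zinc acetate. The proteins were Ni–NTA-purified transcription factors with N-terminal polyhistidine and DsRed fusions, expressed in E. coli BL21-CodonPlus.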

Sequence | binding signal
ATAAATAAATAAAATTGAGCATATTATGAGCAGCTGTGATCGGAGTCACCTAGTGCAG | 6980 fluorescence intensity (a.u.)
TGGCTTTAGATTAATAGATAGATTAAACGTAGACTAATGACGGAGTCACCTAGTGCAG | 17200 fluorescence intensity (a.u.)
GGCAATCAATTATTAATTGATTAATTCCATGAATAGCACACGGAGTCACCTAGTGCAG | 64900 fluorescence intensity (a.u.)
ATATATATATATATAATAATTATATCACATATTTCTTGTTCGGAGTCACCTAGTGCAG | 3450 fluorescence intensity (a.u.)
TACAATTACAAGTCTATCTAGATTTATTATACTAGATTATCGGAGTCACCTAGTGCAG | 4260 fluorescence intensity (a.u.)
CTGTAACTGAGATTTTGAGAATAAGTGGAGCACAAGGGTGCGGAGTCACCTAGTGCAG | 5590 fluorescence intensity (a.u.)
GCCCCACATGTCAATCTCACCCTCCCTTCTTCCTCCTCTCCGGAGTCACCTAGTGCAG | 4320 fluorescence intensity (a.u.)
AACTCAATCAAACACCACTGGTCTCATAACGCTGCTGTCACGGAGTCACCTAGTGCAG | 5380 fluorescence intensity (a.u.)
CATTAATTAATTAGTACAACACCGAACGAAAAGAAGCGAACGGAGTCACCTAGTGCAG | 37100 fluorescence intensity (a.u.)
TGCGGATTGAAATCAAACTTCGCTAGATGCATTTGATTTGCGGAGTCACCTAGTGCAG | 25200 fluorescence intensity (a.u.)
GCTTGATTTGTACTACTATTTGGAATTTTAGCAGGTGACACGGAGTCACCTAGTGCAG | 42800 fluorescence intensity (a.u.)
AAGCGAATTGATGAAGGGAGGAAGGAGATGGAGAGAGTCGCGGAGTCACCTAGTGCAG | 8820 fluorescence intensity (a.u.)
ATTTACCGCAACTGTAATTGAGATGGTTTTGAGATTTCATCGGAGTCACCTAGTGCAG | 6850 fluorescence intensity (a.u.)
ACCGCAGTCTCCTTGCTGTGATTTGTTTGGCGTTTGCTTCCGGAGTCACCTAGTGCAG | 7280 fluorescence intensity (a.u.)
CTAAATTTACATTAGATATCTGTTTTGAATGGCGATTAAGCGGAGTCACCTAGTGCAG | 30900 fluorescence intensity (a.u.)
CATCGTAATGATTAAATTAAAGGAGAAGAAAAGGGTAAGACGGAGTCACCTAGTGCAG | 12700 fluorescence intensity (a.u.)
CAGATTAGATTGGTTGAGATTATTATTCTTGCGTGACAAGCGGAGTCACCTAGTGCAG | 40600 fluorescence intensity (a.u.)
CAAGGATAATTAAATTCATGATGGATGGATGAATTGTATACGGAGTCACCTAGTGCAG | 19700 fluorescence intensity (a.u.)
ATTTAATACTCTAAATTAGTGTTTAAATACAGGGACTAAACGGAGTCACCTAGTGCAG | 7520 fluorescence intensity (a.u.)
ATGATAATTTTATCCGCAAATTACTTACGGCTCCGGGAGACGGAGTCACCTAGTGCAG | 13900 fluorescence intensity (a.u.)
TCGATGACTTCAAACAAATTGTTAACGACGTGCCAGTAAACGGAGTCACCTAGTGCAG | 4530 fluorescence intensity (a.u.)
AAAGGGAGATTATTTATATTAATTCCTGCTTAGCTGCAAACGGAGTCACCTAGTGCAG | 4080 fluorescence intensity (a.u.)
CATGCTAAATTGAGACGATCGGATTCCAAACTTTAGCTCACGGAGTCACCTAGTGCAG | 13600 fluorescence intensity (a.u.)
ACTATGATTGTGCAGGACACTTGTAGGCCACAGGTAGTAGCGGAGTCACCTAGTGCAG | 28600 fluorescence intensity (a.u.)
TCCAATTGATTGCAAATCGATTCCTCACTCCTCTCTTATCCGGAGTCACCTAGTGCAG | 57400 fluorescence intensity (a.u.)
ACGACCTTAATTTAATAAACCGAGCCAACAATAAGTGAGCCGGAGTCACCTAGTGCAG | 9880 fluorescence intensity (a.u.)
ATCCATAATTGGTCGATGCAAAGTCAAAACACCAGCAAACCGGAGTCACCTAGTGCAG | 14400 fluorescence intensity (a.u.)

Sequence | binding signal
CAAAGTAATTAATTAGTGGATTGATAGAAGTTCAATCGACCGGAGTCACCTAGTGCAG | 37400 fluorescence intensity (a.u.)
GCTGAGCCTTGATTGTTTCTTCATAGCTCCTTCCTCTTTCCGGAGTCACCTAGTGCAG | 10000 fluorescence intensity (a.u.)
ACCTGAAATGATTGATGTCAGATCAATGCACTTTCATTATCGGAGTCACCTAGTGCAG | 24100 fluorescence intensity (a.u.)
TTGTAAAATTATATTTATTTAAGATGAAGGGAGTACTATCCGGAGTCACCTAGTGCAG | 4920 fluorescence intensity (a.u.)
TATTTCCTTATTAATTTATCATATAAATGGGTTTATGGGTCGGAGTCACCTAGTGCAG | 4500 fluorescence intensity (a.u.)
ACGCGCCGATTCCGAAGAAATCAATCAACCAACTACTAGGCGGAGTCACCTAGTGCAG | 4480 fluorescence intensity (a.u.)
GTCAATTCATATAATAATTATCTACAAATACATACTACACCGGAGTCACCTAGTGCAG | 5800 fluorescence intensity (a.u.)
AATGACAAAGTGGCTATGATTGCGTGTTTCATATTAGCATCGGAGTCACCTAGTGCAG | 18800 fluorescence intensity (a.u.)
TTAAACAGCTTAATATCAAAAGACACAAATACAACTGCATCGGAGTCACCTAGTGCAG | 8680 fluorescence intensity (a.u.)
AAATTACTAATTGAAAACTAAAAGTCCAAGATTTATTACGCGGAGTCACCTAGTGCAG | 36400 fluorescence intensity (a.u.)
AAAATTAAATAAGACAAATGATTAAAGTTGAATACGGAGACGGAGTCACCTAGTGCAG | 7100 fluorescence intensity (a.u.)
ATTCATGTACCTTTGCTTGTGATTGGCATTGACGTGAGAACGGAGTCACCTAGTGCAG | 7120 fluorescence intensity (a.u.)
AAAAGCTTTGATTTGAACAAACTTAGCCAAAGTTTTGGCACGGAGTCACCTAGTGCAG | 7900 fluorescence intensity (a.u.)
CATACACTCAATCAGAGAGAGATTGTTGGTAGCTAGGTAGCGGAGTCACCTAGTGCAG | 12200 fluorescence intensity (a.u.)
CCGTTTGGATTGACTTATCAACAGAGTGCTTCAATCTATACGGAGTCACCTAGTGCAG | 8190 fluorescence intensity (a.u.)
GATTGATAATTTCAGAACAGTCTCTTTTGTTCACTAGAGCCGGAGTCACCTAGTGCAG | 7610 fluorescence intensity (a.u.)
GAATTGATGGAATTTAGGCCGCCAGCAAGCAAAGACCGAGCGGAGTCACCTAGTGCAG | 13300 fluorescence intensity (a.u.)
GCTGTAAATTATATTTCCTGATCTTGTCAGTGCTGGTCTACGGAGTCACCTAGTGCAG | 20500 fluorescence intensity (a.u.)
TTTTGATTGAAGACACACCTATTGTCGCGAATACTGCTAACGGAGTCACCTAGTGCAG | 40500 fluorescence intensity (a.u.)
GCTATGATTTGACAATGCGATGCTACAGTAAACATTTGCTCGGAGTCACCTAGTGCAG | 21900 fluorescence intensity (a.u.)
TCAGAAATTGAATCCGATTAGGATTACTATTTGTAGGATCCGGAGTCACCTAGTGCAG | 14900 fluorescence intensity (a.u.)
CCGTTAGGGATATTGATTATCTTTTGTAACCCGGACTCCTCGGAGTCACCTAGTGCAG | 4300 fluorescence intensity (a.u.)
TCAGTATGTTAATTAATCAAACATGGGAAATAGCATGGAACGGAGTCACCTAGTGCAG | 17400 fluorescence intensity (a.u.)
TCCATCGACATGTGATTAATTTCCAAGTTAAAGTGTGAAGCGGAGTCACCTAGTGCAG | 10100 fluorescence intensity (a.u.)
GCTGATTGGCTCGCCATGGCTATAAATCTCGAGGTCGGTTCGGAGTCACCTAGTGCAG | 37200 fluorescence intensity (a.u.)
TGGATGATTTTAGTGATAGATTCTTTGTCCCGATACGAAACGGAGTCACCTAGTGCAG | 23900 fluorescence intensity (a.u.)
GTATAATTAATTAAGCAGTGAAGTGAATCGATCTGATTAACGGAGTCACCTAGTGCAG | 35800 fluorescence intensity (a.u.)
